The values below come from PubChem BioAssay AID1508642 (National Center for Advancing Translational Sciences (NCATS), 2021).

The whole screen tested about 43,000 compounds, of which about 200 (0.47%) were called active. About 12% were inconclusive and are not listed. The call rests on the fitted dose curve; in most records, active means well fitted cell-killing curve with a large enough effect; inconclusive means small, poorly fitted or top-dose-only effect, or effect the other way; inactive means flat fitted curve, though single readings scatter. Some of the results follow.
On the % scale 0 is the no-effect control and ±100 the full control effect.

This assay can be described thus: Cell viability qHTS assay in S16 Pmp22-F2sN cells. Further: nearly all actives have a fitted effect of over 65% in size. As to conditions: S16 Pmp22-F2sN Schwann cells viability, CellTiter-Glo, 24 h; series mostly up to 57.5 µM; activity change, negative = cytotoxicity: at the top concentration. The gist of the method:
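S16 Pmp22-F2sN Schwann cells (500-1,000/well) in phenol-red-free DMEM with 10% FBS received 23 nL compound by pin tool for 24 h at 37 °C. Viability was then read as CellTiter-Glo luminescence after 15 min at room temperature.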
For orientation: Quantitative high-throughput screening tests each substance at several concentrations.
With `CCOc1ccc(CCNC(=O)c2cnc3sc(N(CC)CC)nn3c2=O)cc1OCC`, the “activity change, negative = cytotoxicity” value is inactive: 4.35%.
Take `O=C(NCCc1ccccc1)c1ccc2c(c1)N(Cc1ccc(F)cc1)C(=O)c1ccccc1S2(=O)=O`: the “activity change, negative = cytotoxicity” value is inactive: -19.4%.
In the case of `Cc1cccc(N(CC(O)Cn2c3ccccc3c3ccccc32)S(=O)(=O)c2ccc(F)cc2)c1` (stereo not drawn), the “activity change, negative = cytotoxicity” value was inactive: 0.921%.
Regarding `CC(C)c1ccc(NC(=O)c2cc3sc(Cl)cc3n2C)cc1`, the “activity change, negative = cytotoxicity” value was inactive: -1.56%.
Turning to `COc1ccccc1NC(=O)N(Cc1nnc2n1CCCCC2)c1ccc(F)cc1`, the “activity change, negative = cytotoxicity” value is inactive: 21.2%.
As to `CC(=O)c1cccc(NC(=O)C(C)n2c(=O)cc(C)c3c(C)nn(-c4ccccc4)c32)c1` (stereo not drawn), the “activity change, negative = cytotoxicity” value was inactive: 19.6%.
In the case of `COc1ccc(NC(=O)Cn2nnc(C(=O)NCCc3ccccc3)c2N)cc1`, the “activity change, negative = cytotoxicity” value was inactive: 4.34%.
For `COc1ccc(OC)c(CNS(=O)(=O)c2ccc3c(c2)CCCN3C(C)=O)c1` the value was inactive: -3.11%; for `Cc1ccccc1S(=O)Cc1ccc(C(=O)N2CCN(c3cccc(C)c3C)CC2)o1` (stereo not drawn), inactive: -25.3%; for `Cc1ccc2onc(CC(=O)N3CCN(c4ccc(F)cc4)CC3)c2c1`, inactive: 1.19%.
On to `CC(C)CC(=O)N1c2nc(C(C)C)nn2C2(CCCCC2)[C@@H]2CCCC[C@@H]21`, for which the “activity change, negative = cytotoxicity” value is inactive: 2.04%.
For `Cc1ccc(-c2c(CN3CCN(c4cccc(C)c4)C(C)C3)csc2C)cc1` (stereo not drawn), the “activity change, negative = cytotoxicity” value was inactive: 19.5%.
For `O=C(NCc1ccco1)c1ccc2c(c1)N(Cc1ccccc1)C(=O)c1ccccc1S2(=O)=O`, the “activity change, negative = cytotoxicity” value was inactive: -1.82%.
With `COCCNc1ncnc2c1c(-c1ccccc1)cn2-c1ccc(C)c(Cl)c1`, the “activity change, negative = cytotoxicity” value was inactive: 19.1%.
For `NCc1nc2cccnc2n1Cc1ccccc1Cl` the value was inactive: 10.5%.
For `Cc1ccc(CNC(=O)c2oc3c(c2C)-c2nn(Cc4ccc(Cl)cc4)cc2CC3)cc1` the value was inactive: -5.33%; for `Cc1cc(S(=O)(=O)C(CNC(=O)c2ccc(OC(C)C)cc2)c2cccs2)ccc1F` (stereo not drawn), inactive: -24.5%.
For `COc1ccc(-n2ncc3c(NC(C)(C)CO)ncnc32)cc1` the value was inactive: 9.38%.
As for `CCOc1ccc(NC(=O)Cn2c3ncccc3c(=O)n2-c2ccc(CC)cc2)cc1`, the “activity change, negative = cytotoxicity” value was inactive: -0.829%.
Take `COc1ccc(NC(=O)Cn2c(=O)c(-c3cc(C)ccc3NC(C)=O)nc3ccccc32)c(OC)c1`: the “activity change, negative = cytotoxicity” value was inactive: 15.9%.
As for `Cc1cc(C)cc(NC(=O)C(=O)NCC(c2ccc3c(c2)OCO3)N2CCN(C)CC2)c1` (stereo not drawn), the “activity change, negative = cytotoxicity” value is inactive: -4.48%.
For `CCCN(Cc1cccs1)C(=O)Nc1ccc(OCC)cc1` the value was inactive: 8.17%.
On to `CCOC(=O)CNc1nc(Oc2ccc(=O)n(C)n2)nc(N(CC)CC)n1`, for which the “activity change, negative = cytotoxicity” value is inactive: 13.6%.
`COc1ccc(N2CCN(Cc3nc4c(c(=O)[nH]c(=O)n4C)n3Cc3ccc(Cl)cc3)CC2)cc1`: the “activity change, negative = cytotoxicity” value is inactive: -1.84%.
As to `Cc1cccc(-c2nc(SCC(=O)N3CCc4ccccc43)c3c(=O)n(C)c(=O)n(C)c3n2)c1`, the “activity change, negative = cytotoxicity” value was inactive: -0.42%.
With `CCC(=O)Nc1cc(-c2cccc(C)c2)nn1-c1ccccc1`, the “activity change, negative = cytotoxicity” value was inactive: 11.5%.
As to `COc1cccc2c1ncc1c(-c3ccc(C)cc3)nn(-c3cccc([N+](=O)[O-])c3)c12`, the “activity change, negative = cytotoxicity” value is inactive: -1.87%.
`Cc1cccc(-c2nnc(SCc3cc(=O)c4cccc(Cl)c4[nH]3)n2C)c1`: the “activity change, negative = cytotoxicity” value is inactive: -24.6%.
For `CCOc1ccc(-n2c(SCC(=O)N3CCc4ccccc43)nc3c([nH]c4ccccc43)c2=O)cc1` the value was inactive: 12.5%.
For the compound `COc1ccc(OC)c(NC(=O)c2cc(-c3ccc(Cl)s3)nc3ccccc23)c1`, the “activity change, negative = cytotoxicity” value is inactive: 3.19%.
Regarding `O=C(COc1ccccc1)NCc1ccc2c(c1)CCN2C(=O)c1ccc(Cl)cc1`, the “activity change, negative = cytotoxicity” value was inactive: 3.11%.
For `COc1ccc(NC(=O)N(CCC(C)C)C(C)c2cccs2)c(OC)c1` (stereo not drawn), the “activity change, negative = cytotoxicity” value was inactive: 0.564%.
For `Cc1cc(=O)[nH]c2nnc(SCC(=O)Nc3ccc(OC(F)(F)F)cc3)n12` the value was inactive: -2.62%; for `COc1ccc(C2C(C(N)=O)=C(C)Nc3nc(SCc4ccccc4Cl)nn32)cc1OC` (stereo not drawn), inactive: 0.335%; for `CCOc1ccc(C(=O)NCc2nc3cccnc3n2Cc2ccc(F)cc2)cc1OCC`, inactive: -1.14%.
As for `Cc1sc2c(c1C)c(=O)n(-c1ccc(Cl)cc1)c(=O)n2Cc1cc(=O)n2ccccc2n1`, the “activity change, negative = cytotoxicity” value was inactive: 0.275%.
For the compound `CC1CCCN(C(=O)c2cc3c(=O)n(C)c4ccccc4c3s2)C1` (stereo not drawn), the “activity change, negative = cytotoxicity” value is inactive: 2.73%.
For `O=C(NCc1ccco1)c1ccc(Cn2c(SCc3ccc(F)cc3)nc3cccnc32)cc1` the value was inactive: -17.7%.
Regarding `CCOC(=O)c1ccccc1NC(=O)CSc1nc2ccncc2[nH]1`, the “activity change, negative = cytotoxicity” value is inactive: 12.3%.
Take `COc1ccc(C(=O)c2cn(Cc3ccccc3F)c3cc4c(cc3c2=O)OCO4)cc1`: the “activity change, negative = cytotoxicity” value was inactive: -27.6%.
`O=c1cc(-c2ccccc2)n2c(SCc3ccc(Cl)cc3)nnc2[nH]1`: the “activity change, negative = cytotoxicity” value was inactive: 2.3%.
For `COc1ccc(CNC(=O)Cn2nnc(-c3ccc(C(F)(F)F)cc3)n2)cc1` the value was inactive: 4.73%; for `COc1ccc(-n2c3c(cc(-c4nc(-c5ccc(C)cc5)cs4)c2=O)C(=O)CC(C)(C)C3)cc1`, inactive: 13.7%; for `CC(C)C(=O)NCC(c1ccc2c(c1)OCO2)N1CCN(c2ccccc2F)CC1` (stereo not drawn), inactive: -18.1%.
Take `COc1ccccc1C(=O)Nc1ccc2oc(-c3cccc(Cl)c3Cl)nc2c1`: the “activity change, negative = cytotoxicity” value is inactive: -2.2%.
Take `CCOC(=O)c1c(C)oc2ncnc(Nc3ccc(CC)cc3)c12`: the “activity change, negative = cytotoxicity” value was inactive: 0.598%.
On to `CC1CCN(C(=O)CN2CCSc3ccc(S(=O)(=O)N(C)C)cc32)CC1`, for which the “activity change, negative = cytotoxicity” value was inactive: 9.11%.
With `O=C(C1CCN(S(=O)(=O)c2cccc3nonc23)CC1)N1CCN(c2ccc(F)cc2)CC1`, the “activity change, negative = cytotoxicity” value is inactive: 0.452%.
